The supplement of paper PMC11417369
Some of the results follow.

These sequences were tested on PF3D7_0420300 AP2 domain 1 (GST-tagged) (assay: gcPBM binding intensity (ln(normalized median fluorescence intensity)); higher = stronger DNA binding).
Procedure, shortened: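 Plasmodium falciparum DNA-binding domains carrying a GST tag were expressed in E. coli and applied for 1 h, at about 25 μg on average, to an Agilent 4 × 180k array. The array held primer-extended double-stranded 36-bp intergenic genomic probes together with negative controls, and binding took place in 1× PBS with 1% milk, 0.2 mg/ml BSA, 0.5% salmon testes DNA and 0.03% Triton X-100. An Alexa488 anti-GST antibody detected bound protein, and the array was scanned at 488 nm. Binding intensity is taken as the highest Masliner-normalised natural-log median intensity across replicate spots of either probe orientation.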
With “TATAAAAATATATTTACACACTATAAATATCGAAAG [CACACA_site6896]” the “gcPBM binding intensity (ln)” value was 9.39. In the case of “TAATTTATAAATATAATATTTATGTATATGATGTTT [CACACA_negctrl_site464]”, the “gcPBM binding intensity (ln)” value is reported as 9.19. In the case of “TTCAAGATTTATTATACACACATATTAAAATATATA [CACACA_site4479]”, the “gcPBM binding intensity (ln)” value is reported as 9.22. “AAACATTTTCATTTGACACACATCATATATTTATAT [CACACA_site1794]” was tested, and the “gcPBM binding intensity (ln)” value was 9.53. For “AATCTATCAAAGTGTACATGCAATAAAAAAAAAAAA [TGCATGCA_site103]”, the “gcPBM binding intensity (ln)” value was 9.33. With “AAAAAATTATTATGAACACACATTTATTATATTCAT [CACACA_site1566]” the “gcPBM binding intensity (ln)” value was 9.34. In the case of “CTTTCATTTCTATCTACACACATATTTTTTCCAAGT [CACACA_site2972]”, the “gcPBM binding intensity (ln)” value is reported as 9.76. “GCGTGCGTGTACTTAACACACATAATATGTATTTAT [CACACA_site1247]” was tested, and the “gcPBM binding intensity (ln)” value was 9.47. “TTTTTTTTTCCCCCATGTACATAAATAAGTATATCT [XGTACX_site6965]” was tested, and the “gcPBM binding intensity (ln)” value was 9.32. With “AAAAGAAAAAAAAGTACACACATGTATATTAAGCGT [CACACA_site5402]” the “gcPBM binding intensity (ln)” value was 9.83. “TTAATGTACAGACACCCACACACAAACAAATATATA [CACACA_site8888]” was tested, and the “gcPBM binding intensity (ln)” value was 9.8. “TAACTTAATTTTAATGCACACAATTTATATATATAT [CACACA_site6022]” was tested, and the “gcPBM binding intensity (ln)” value was 9.37. “AAAAATATATATATATATATATATATATTATTTTTT [TGCATGCA_negctrl_site378]” was tested, and the “gcPBM binding intensity (ln)” value was 8.96. With “TATATATATAAATACAGTACATATATAATATTTTGA [XGTACX_site637]” the “gcPBM binding intensity (ln)” value was 9.28. “ATATGTACTATACGCACACACACTCACATATATATA [CACACA_site3239]” was tested, and the “gcPBM binding intensity (ln)” value was 10.1. For “AATTATATGAAATAAACACACATATGCAATATTGCA [CACACA_site6988]”, the “gcPBM binding intensity (ln)” value was 9.47. “TTGGATTTTTCCTATGAACACACGGGGTTACAATTA [CACACA_site449]” was tested, and the “gcPBM binding intensity (ln)” value was 9.14. With “TCCAATAATTTATAAAAAAAAAAAGGGAAAATGTAT [TGCATGCA_negctrl_site492]” the “gcPBM binding intensity (ln)” value was 9.26. In the case of “ATATATTTATTATTAACATGCAATCATTATATATAA [TGCATGCA_site404]”, the “gcPBM binding intensity (ln)” value is reported as 9.05. For “TTAATATGAGAATAATGTACAAGAAAATATTACATA [XGTACX_site6609]”, the “gcPBM binding intensity (ln)” value was 9.21. With “AAAATAATAAAAAACTGTACGAATTAAAAATTAACA [XGTACX_site8454]” the “gcPBM binding intensity (ln)” value was 9.41. “TACAACTTAATATGTACACACAAATATATATATATA [CACACA_site5138]” was tested, and the “gcPBM binding intensity (ln)” value was 9.45. For “GAAATACATTTTAAAAAATAAGTAATTATAAAATAA [TGCATGCA_negctrl_site303]”, the “gcPBM binding intensity (ln)” value was 9.08. With “GATACCTATAGACACACACACATACCTATATACATA [CACACA_site7586]” the “gcPBM binding intensity (ln)” value was 10.1. In the case of “ATTCATCCAATAATGTGAATTATCATGATAAACTTA [TGCATGCA_negctrl_site406]”, the “gcPBM binding intensity (ln)” value is reported as 9. “TTTATAAATAAACACACACACATGTGAACATAAAAA [CACACA_site5110]” was tested, and the “gcPBM binding intensity (ln)” value was 9.94. “ATCAAAATTGTCATTACACACCTTTATTTTTAGAAT [CACACA_site1813]” was tested, and the “gcPBM binding intensity (ln)” value was 9.42. In the case of “ATTATTCTATATGAAACATGCATACATTTGTATTTT [TGCATGCA_site823]”, the “gcPBM binding intensity (ln)” value is reported as 9.28. With “ATATATGTAAATGAATGTACATTATTTTATATATTA [XGTACX_site8460]” the “gcPBM binding intensity (ln)” value was 9.14. “TTTTTAATTTTTTTTAAACACACACCGTACATTCAA [CACACA_site7925]” was tested, and the “gcPBM binding intensity (ln)” value was 9.43. In the case of “TATATACTTTATAAATGTACATATAATGTATTATTT [XGTACX_site7313]”, the “gcPBM binding intensity (ln)” value is reported as 9.1. For TCATTTTAAATATGTGTGCACGTTATAATTTACACA, the “gcPBM binding intensity (ln)” value was 9.43. “CATTTTCATTTTAAGGTGCATTAATATTTATTTTAA [GTGCAC_site9437]” was tested, and the “gcPBM binding intensity (ln)” value was 9.22. For “TATATATATACATATTGTACATATTACATGCTATTA [XGTACX_site1184]”, the “gcPBM binding intensity (ln)” value was 9.28. With “ATAGATAAATTTACGGGTACTAAAATGGAATATGAA [XGTACX_site8637]” the “gcPBM binding intensity (ln)” value was 9.41. With “TGTGTTCAGTATTGCACACACACAACCAAATAAAAA [CACACA_site379]” the “gcPBM binding intensity (ln)” value was 9.64. “TATTTTACAATAACAATACACACTATAATATATATA [CACACA_site1391]” was tested, and the “gcPBM binding intensity (ln)” value was 9.41. In the case of “ATTCACATATTATCTTTACACACTATATATAAGTTT [CACACA_site8901]”, the “gcPBM binding intensity (ln)” value is reported as 9.75. For “CATCAAAATGCTACATGTACATATATATAATATATT [XGTACX_site5207]”, the “gcPBM binding intensity (ln)” value was 9.32. “AATATATATAAATAAACACACACAAATATAATAAAA [CACACA_site9176]” was tested, and the “gcPBM binding intensity (ln)” value was 10.2. With GAAATGAACAAGTGGGTGCGTATTAATTACATATTA the “gcPBM binding intensity (ln)” value was 9.46. With “AAACTCTCTTATATTAAACACACATATATATATGTA [CACACA_site8865]” the “gcPBM binding intensity (ln)” value was 9.35. With “CCTTTATTAAATAAATGTACATATTTTTGTGTTCTT [XGTACX_site2052]” the “gcPBM binding intensity (ln)” value was 9.4. In the case of “AAAAACTTTTCAAGTAGTACCATATCTACAATAGTA [XGTACX_site8927]”, the “gcPBM binding intensity (ln)” value is reported as 9.11. For “AAACAAAAGATATATACACACTAAACATAAAAAAAA [CACACA_site6161]”, the “gcPBM binding intensity (ln)” value was 9.71.
